# The whole screen tested about 310,000 compounds, of which about 2,200 (0.71%) showed an effect of 50% or more. Effects have a minus sign here. The list shows a part of the results.
# Biological target: human ether-à-go-go-related gene (hERG) potassium channel (human, UniProt Q12809)
# Assay: primary screen, population patch clamp on CHO cells stably expressing hERG
# Chain of human ether-à-go-go-related gene (hERG) potassium channel (Q12809 whole entry, looked up): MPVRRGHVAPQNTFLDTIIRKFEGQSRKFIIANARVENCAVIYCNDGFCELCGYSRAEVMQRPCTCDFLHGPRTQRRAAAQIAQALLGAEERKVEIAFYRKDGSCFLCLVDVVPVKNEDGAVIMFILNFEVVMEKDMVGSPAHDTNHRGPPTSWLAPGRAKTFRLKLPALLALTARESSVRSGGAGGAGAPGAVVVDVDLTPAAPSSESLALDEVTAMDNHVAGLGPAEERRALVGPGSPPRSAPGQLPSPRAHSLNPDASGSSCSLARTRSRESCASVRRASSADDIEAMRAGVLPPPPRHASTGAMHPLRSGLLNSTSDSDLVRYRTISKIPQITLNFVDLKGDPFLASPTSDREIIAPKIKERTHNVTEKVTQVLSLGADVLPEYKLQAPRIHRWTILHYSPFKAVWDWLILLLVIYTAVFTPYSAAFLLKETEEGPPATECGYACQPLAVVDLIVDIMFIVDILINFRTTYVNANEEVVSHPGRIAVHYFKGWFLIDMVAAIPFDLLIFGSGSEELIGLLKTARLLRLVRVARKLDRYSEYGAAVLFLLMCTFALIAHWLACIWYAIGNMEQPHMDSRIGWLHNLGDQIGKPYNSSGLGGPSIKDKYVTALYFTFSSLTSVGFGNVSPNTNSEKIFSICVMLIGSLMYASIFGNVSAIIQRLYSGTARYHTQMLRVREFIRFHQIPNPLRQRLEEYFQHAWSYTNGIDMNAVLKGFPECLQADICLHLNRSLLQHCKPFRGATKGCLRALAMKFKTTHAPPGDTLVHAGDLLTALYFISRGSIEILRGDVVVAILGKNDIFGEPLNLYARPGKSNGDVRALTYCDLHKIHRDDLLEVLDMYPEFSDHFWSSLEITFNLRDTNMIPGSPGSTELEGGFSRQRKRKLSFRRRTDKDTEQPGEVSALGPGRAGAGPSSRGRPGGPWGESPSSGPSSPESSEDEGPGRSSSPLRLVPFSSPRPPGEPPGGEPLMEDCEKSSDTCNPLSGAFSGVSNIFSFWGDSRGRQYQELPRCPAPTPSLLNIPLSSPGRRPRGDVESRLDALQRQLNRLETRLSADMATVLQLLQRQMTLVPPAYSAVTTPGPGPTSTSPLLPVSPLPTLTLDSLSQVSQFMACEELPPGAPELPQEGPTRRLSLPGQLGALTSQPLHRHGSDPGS
row,Compound,"hERG current change (%, negative = inhibition) at 1uM [%]"
1,CCSc1ccc(NC(=O)c2cccnc2)cc1,5.83
2,CCN(CC(=O)Nc1c(F)cccc1F)C(=O)CNC(=O)c1cccs1,10.9
3,CN1CCN(C(=O)NC2CCCN2S(=O)(=O)c2ccc(Cl)cc2)CC1 (centres unmarked),5.18
4,CN1c2ccc([N+](=O)[O-])cc2CC2(C(=O)NC(=O)N(c3ccccc3)C2=O)C1c1ccccc1 (centres unmarked),23.8
5,CN(Cc1cccs1)c1ncnc2sccc12,4.33
6,CCCNC(=O)N1c2ccccc2Sc2ccccc21,16.8
7,CCCS(=O)(=O)c1csc(C(=O)OC)c1N,10.1
8,CN(CC(=O)Nc1cccc(F)c1)C(=O)c1ccc(N2CCCC2)c([N+](=O)[O-])c1,-8.06
9,CCOC(=O)C1=C(N)Oc2c(oc(CO)cc2=O)C1c1c(F)cccc1Cl (centres unmarked),7.71
10,Cc1nc(C)c(C(=O)OCC(=O)NCCc2ccc(S(N)(=O)=O)cc2)s1,4.91
11,O=C(N=C1SC2CS(=O)(=O)CC2N1c1ccc(Br)cc1F)C1CC1 (centres unmarked),14.6
12,CC(=O)c1c(O)c(C)c(-c2ccccc2)n(-c2ccccc2)c1=O,1.34
13,CC(C)Nc1nc(NC(C)C)nc(Nn2cnnc2)n1,9.94
14,O=C(N=C1SC2CS(=O)(=O)CC2N1c1ccc(Br)cc1Cl)C1CC1 (centres unmarked),12.6
15,O=C(O)c1ccc(CSc2nnc(-c3ccncc3)n2-c2ccc(Br)cc2)cc1,2.92
16,CCCCn1c(N)c(N(CC(C)C)C(=O)c2cccc(S(=O)(=O)N3CCCCC3)c2)c(=O)[nH]c1=O,18
17,CCN1CCN(CCCNC(=O)c2csc3c2CCCCC3)CC1,6.49
18,Cc1onc(-c2c(F)cccc2Cl)c1C(O)c1ccc(F)cc1 (centres unmarked),13.3
19,O=C(C1CCCC1)N(c1ccccc1)C1C=CS(=O)(=O)C1 (centres unmarked),9.75
20,COc1ccc(-n2nc3c(c2NC(=O)c2ccc(N4C(=O)CCC4=O)cc2)CSC3)cc1,18
21,O=C(CSc1nnnn1-c1ccccc1)N1CCN(C(=O)c2ccco2)CC1,-22
22,Cc1nc(NCCC(C)C)c2nnn(Cc3ccccc3)c2n1,11.3

row,Compound,"hERG current change (%, negative = inhibition) at 1uM [%]"
1,CC(C)(C)C(=O)NC1CCN(S(=O)(=O)c2ccccc2F)CC1,7.45
2,CCCCOC(=O)C1=C(C)NC(=O)NC1c1ccc([N+](=O)[O-])s1 (centres unmarked),13.4
3,COc1cc2c(=O)n(CCC(=O)NCC3CCCO3)c(=O)n(CC(=O)Nc3ccc(C)cc3)c2cc1OC (centres unmarked),11.9
4,O=S(=O)(c1ccc(Br)cc1)N1CCOC12CCCCC2,7.53
5,CCC(Oc1ccc(C)c(C)c1)C(=O)N1CCCN(C)CC1 (centres unmarked),9.05
6,O=C1CC2(CON=C2c2ccc(F)cc2)C(=O)N1c1ccc(F)cc1 (centres unmarked),10.4
7,O=S(=O)(Nc1cccc(-c2cn3ccsc3n2)c1)c1ccc(F)cc1,13
8,CCCC(=O)NC(c1ccco1)c1c(O)ccc2ccccc12 (centres unmarked),5.88
9,COC(=O)C(Cc1c[nH]c2ccccc12)NC(C)=O (centres unmarked),9.43
10,COc1cc(/C=C(\C#N)C(=O)Nc2cccc(C(=O)O)c2)ccc1OCc1ccc(C)cc1,9.81
11,Cc1ccc(C2SCC(=O)Nc3c2c(=O)[nH]n3C2CCOC(C)(C)C2)cc1 (centres unmarked),8.07
12,CCOC(=O)c1c(C)[nH]c(C(=O)OCC(=O)NCc2ccc(OC)c(OC)c2)c1C,6.57
13,N#CCCn1cc(C(=O)Nc2ccccc2Br)c(-c2ccc3c(c2)OCCO3)n1,10.7
14,COc1ccc(N(CC(=O)NCC2CCCO2)C(=O)CCC(=O)Nc2nccs2)cc1 (centres unmarked),14.4
15,O=C(C1=C[C@H](c2coc3ccccc3c2=O)C[C@H](OCc2ccc(CO)cc2)O1)N1CCN(Cc2ccccc2)CC1,0.974
16,O=C(CSc1nnc(-c2ccccc2F)n1C1CC1)NC(=O)c1cccc([N+](=O)[O-])c1,-19.4
17,CC(=O)c1cn(CC(=O)NCC2CCCO2)c2ccccc12 (centres unmarked),10.5
18,CN1C(=O)CC(N2CCN(Cc3ccc(Cl)cc3)CC2)C1=O (centres unmarked),11.1
19,c1csc(-c2cn3c(n2)SCC3)c1,-4.97
20,O=C(CN1C(=O)c2ccccc2S1(=O)=O)NC1CC2CCC1C2 (centres unmarked),5.62
21,Cc1cc(N=Cc2c(O)n(-c3ccc4c(c3)OCO4)c(=O)c3ccccc23)ccn1,7.15
22,COC(=O)c1ccc(CSc2nnc(NC(C)C)s2)o1,23

# Reference: publication PMC4336329 (PLoS ONE, 2015)
